What follows are compounds tested on MLKL phosphorylation, HT29-L23 human colorectal adenocarcinoma cells (assay: cells). Details: read-out: pMLKL HCS Cell Assay (IC50, uM).

Structure (SMILES)	IC50 [µM]
COc1ccc(-c2cc(C(F)(F)F)c3c(N)ncnn23)cc1C(=O)N[C@@H]1CN(C(=O)C2CC2(F)F)C[C@@H]1F (stereo partly drawn) [Example 1132, 5-[4-amino-5-(trifluoromethyl)pyrrolo[2,1-f][1,2,4]triazin-7-yl]-N-[(3R,4S)-1-(2,2-difluorocyclopropanecarbonyl)-4-fluoropyrrolidin-3-yl]-2-methoxybenzamide]	0.012
COc1ccc(-c2cc(C(F)(F)F)c3c(N)ncnn23)cc1C(=O)N[C@@H]1CN(C(=O)C2CC(F)C2)C[C@@H]1F (stereo partly drawn) [Example 1133, 5-[4-amino-5-(trifluoromethyl)pyrrolo[2,1-f][1,2,4]triazin-7-yl]-N-[(3R,4S)-4-fluoro-1-(3-fluorocyclobutanecarbonyl)pyrrolidin-3-yl]-2-methoxybenzamide]	0.0095
CNc1ccc(-c2cc(C(F)(F)F)c3c(N)ncnn23)cc1C(=O)N[C@@H]1CN(C(=O)CC(C(F)(F)F)C(F)(F)F)C[C@@H]1F [Example 1135, 5-[4-amino-5-(trifluoromethyl)pyrrolo[2,1-f][1,2,4]triazin-7-yl]-N-[(3R,4S)-4-fluoro-1-[4,4,4-trifluoro-3-(trifluoromethyl)butanoyl]pyrrolidin-3-yl]-2-(methylamino)benzamide]	0.032
CNc1ccc(-c2cc(C(F)(F)F)c3c(N)ncnn23)cc1C(=O)N[C@@H]1CN(C(=O)[C@@](C)(O)C(F)(F)F)C[C@@H]1F [Example 1136, 5-[4-amino-5-(trifluoromethyl)pyrrolo[2,1-f][1,2,4]triazin-7-yl]-N-[(3R,4S)-4-fluoro-1-[(2R)-3,3,3-trifluoro-2-hydroxy-2-methylpropanoyl]pyrrolidin-3-yl]-2-(methylamino)benzamide]	0.015
CNc1ccc(-c2cc(C(F)(F)F)c3c(N)ncnn23)cc1C(=O)N[C@@H]1CN(C(=O)CC(O)(C(F)(F)F)C(F)(F)F)C[C@@H]1F [Example 1137, 5-[4-amino-5-(trifluoromethyl)pyrrolo[2,1-f][1,2,4]triazin-7-yl]-N-[(3R,4S)-4-fluoro-1-[4,4,4-trifluoro-3-hydroxy-3-(trifluoromethyl)butanoyl]pyrrolidin-3-yl]-2-(methylamino)benzamide]	0.02
Nc1ncnn2c(-c3ccc(Cl)c(C(=O)N[C@@H]4CN(C(=O)CC(C(F)(F)F)C(F)(F)F)C[C@@H]4F)c3)cc(CN3CCC(F)(F)CC3)c12 [Example 1138, 5-{4-amino-5-[(4,4-difluoropiperidin-1-yl)methyl]pyrrolo[2,1-f][1,2,4]triazin-7-yl}-2-chloro-N-[(3R,4S)-4-fluoro-1-[4,4,4-trifluoro-3-(trifluoromethyl)butanoyl]pyrrolidin-3-yl]benzamide]	0.00055
Nc1ncnn2c(-c3ccc(Cl)c(C(=O)N[C@@H]4CN(C(=O)CC(O)(C(F)(F)F)C(F)(F)F)C[C@@H]4F)c3)cc(CN3CCC(F)(F)CC3)c12 [Example 1139]	0.0012
Nc1ncnn2c(-c3ccc(Cl)c(C(=O)N[C@@H]4CN(C(=O)C5CC(F)(F)C5)C[C@@H]4F)c3)cc(CN3CCC(F)(F)CC3)c12 [Example 1140, 5-{4-amino-5-[(4,4-difluoropiperidin-1-yl)methyl]pyrrolo[2,1-f][1,2,4]triazin-7-yl}-2-chloro-N-[(3R,4S)-1-(3,3-difluorocyclobutanecarbonyl)-4-fluoropyrrolidin-3-yl]benzamide]	0.0011
C[C@@](O)(C(=O)N1C[C@H](F)[C@H](NC(=O)c2cc(-c3cc(CN4CCC(F)(F)CC4)c4c(N)ncnn34)ccc2Cl)C1)C(F)(F)F [Example 1141, 5-{4-amino-5-[(4,4-difluoropiperidin-1-yl)methyl]pyrrolo[2,1-f][1,2,4]triazin-7-yl}-2-chloro-N-[(3R,4S)-4-fluoro-1-[(2R)-3,3,3-trifluoro-2-hydroxy-2-methylpropanoyl]pyrrolidin-3-yl]benzamide]	0.00075
Nc1ncnn2c(-c3ccc(Cl)c(C(=O)N[C@@H]4CN(C(=O)C5CC(F)C5)C[C@@H]4F)c3)cc(CN3CCC(F)(F)CC3)c12 (stereo partly drawn) [Example 1142, 5-{4-amino-5-[(4,4-difluoropiperidin-1-yl)methyl]pyrrolo[2,1-f][1,2,4]triazin-7-yl}-2-chloro-N-[(3R,4S)-4-fluoro-1-(3-fluorocyclobutanecarbonyl)pyrrolidin-3-yl]benzamide]	0.00058
Nc1ncnn2c(-c3ccc(Cl)c(C(=O)N[C@@H]4CN(C(=O)C5(F)CC5)C[C@@H]4F)c3)cc(CN3CCC(F)(F)CC3)c12 [Example 1143, 5-{4-amino-5-[(4,4-difluoropiperidin-1-yl)methyl]pyrrolo[2,1-f][1,2,4]triazin-7-yl}-2-chloro-N-[(3R,4S)-4-fluoro-1-(1-fluorocycloproapnecarbonyl)pyrrolidin-3-yl]benzamide]	0.00053
CC(C)(F)C(=O)N1C[C@H](F)[C@H](NC(=O)c2cc(-c3cc(CN4CCC(F)(F)CC4)c4c(N)ncnn34)ccc2Cl)C1 [Example 1144, 5-{4-amino-5-[(4,4-difluoropiperidin-1-yl)methyl]pyrrolo[2,1-f][1,2,4]triazin-7-yl}-2-chloro-N-[(3R,4S)-4-fluoro-1-(2-fluoro-2-methylpropanoyl)pyrrolidin-3-yl]benzamide]	0.00034
Nc1ncnn2c(-c3ccc(Cl)c(C(=O)N[C@@H]4CN(C(=O)CC(F)(F)F)C[C@@H]4F)c3)cc(CN3CCC(F)(F)CC3)c12 [Example 1145, 5-{4-amino-5-[(4,4-difluoropiperidin-1-yl)methyl]pyrrolo[2,1-f][1,2,4]triazin-7-yl}-2-chloro-N-[(3R,4S)-4-fluoro-1-(3,3,3-trifluoropropanoyl)pyrrolidin-3-yl]benzamide]	0.0019
CC(C)CC(=O)N1C[C@H](F)[C@H](NC(=O)c2cc(-c3cc(CN4CCC(F)(F)CC4)c4c(N)ncnn34)ccc2Cl)C1 [Example 1146, 5-{4-amino-5-[(4,4-difluoropiperidin-1-yl)methyl]pyrrolo[2,1-f][1,2,4]triazin-7-yl}-2-chloro-N-[(3R,4S)-4-fluoro-1-(3-methylbutanoyl)pyrrolidin-3-yl]benzamide]	0.00047
Nc1ncnn2c(-c3ccc(Cl)c(C(=O)N[C@@H]4CN(C(=O)C5CCC(F)(F)CC5)C[C@@H]4F)c3)cc(CN3CCC(F)(F)CC3)c12 [Example 1147, 5-{4-amino-5-[(4,4-difluoropiperidin-1-yl)methyl]pyrrolo[2,1-f][1,2,4]triazin-7-yl}-2-chloro-N-[(3R,4S)-1-(4,4-difluorocyclohexanecarbonyl)-4-fluoropyrrolidin-3-yl]benzamide]	0.0011
Nc1ncnn2c(-c3ccc(Cl)c(C(=O)N[C@@H]4CN(C(=O)C5CCC(F)(F)C5)C[C@@H]4F)c3)cc(CN3CCC(F)(F)CC3)c12 (stereo partly drawn) [Example 1148, 5-{4-amino-5-[(4,4-difluoropiperidin-1-yl)methyl]pyrrolo[2,1-f][1,2,4]triazin-7-yl}-2-chloro-N-[(3R,4S)-1-(3,3-difluorocyclopentanecarbonyl)-4-fluoropyrrolidin-3-yl]benzamide]	0.001
Nc1ncnn2c(-c3ccc(Cl)c(C(=O)N[C@@H]4CN(C(=O)C5(F)CC5)C[C@@H]4F)c3)cc(CN3CCC(C(F)(F)F)CC3)c12 [Example 1149, 5-(4-amino-5-{[4-(trifluoromethyl)piperidin-1-yl]methyl}pyrrolo[2,1-f][1,2,4]triazin-7-yl)-2-chloro-N-[(3R,4S)-4-fluoro-1-(1-fluorocyclopropanecarbonyl)pyrrolidin-3-yl]benzamide]	0.0026
